Data from publication PMC4231161.
These are yes or no findings as the source states them, for the method shown. Binding seen in cells or lysates may run through a third protein. Some results given as binding are weak or reduced against the parent protein; the word gives no strength. For some of these results: Where a sequence is shown, tags or fusion partners need not be part of it.

Chains of the proteins cited; added tags and fusions are not shown.
UniProt A0A125YP06: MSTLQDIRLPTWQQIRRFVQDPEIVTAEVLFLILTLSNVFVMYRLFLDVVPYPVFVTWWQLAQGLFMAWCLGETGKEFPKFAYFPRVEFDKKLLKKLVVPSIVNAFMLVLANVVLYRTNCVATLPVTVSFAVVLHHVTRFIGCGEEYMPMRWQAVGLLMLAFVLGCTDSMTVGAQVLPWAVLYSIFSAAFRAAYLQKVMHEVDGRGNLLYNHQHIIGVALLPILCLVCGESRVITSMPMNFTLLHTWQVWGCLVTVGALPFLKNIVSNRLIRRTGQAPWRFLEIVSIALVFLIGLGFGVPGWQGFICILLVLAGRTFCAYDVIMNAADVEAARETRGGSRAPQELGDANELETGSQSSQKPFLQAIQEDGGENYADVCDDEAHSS

Columns and labels:
[1] = biological target: T1, GAP45Ty (second copy of GAP45 with a Ty tag) (Toxoplasma gondii) (UniProt Q7Z289); experiment: co-IP; [35S]-methionine/cysteine labelled tachyzoites lysed in CoIP buffer (1% Triton X-100, 50 mM Tris-HCl pH 8, 150 mM NaCl); tagged bait precipitated with monoclonal anti-Ty or anti-Myc and Protein A-Sepharose, 4 C; eluted proteins seen by autoradiography; also in MyoC-KO background and in GAP45-iKO +/- ATc
T1 sequence: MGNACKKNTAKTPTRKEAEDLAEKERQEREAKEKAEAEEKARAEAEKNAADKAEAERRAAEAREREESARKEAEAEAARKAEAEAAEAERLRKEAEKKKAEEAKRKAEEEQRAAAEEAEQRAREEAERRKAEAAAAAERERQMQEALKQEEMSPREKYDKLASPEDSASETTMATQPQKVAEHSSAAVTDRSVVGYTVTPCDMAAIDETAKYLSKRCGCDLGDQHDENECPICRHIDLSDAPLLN

[2] = biological target: KI-GAP80Ty (GAP80 Ty-tagged at the endogenous locus) (Toxoplasma gondii); experiment: as above
[3] = biological target: GAP80Ty (second copy of GAP80 with a Ty tag, tubulin promoter) (Toxoplasma gondii); experiment: as above
[4] = biological target: T2, KI-GAP45Ty (GAP45 Ty-tagged at the endogenous locus) (Toxoplasma gondii) (UniProt Q7Z289); experiment: as above
T2 sequence: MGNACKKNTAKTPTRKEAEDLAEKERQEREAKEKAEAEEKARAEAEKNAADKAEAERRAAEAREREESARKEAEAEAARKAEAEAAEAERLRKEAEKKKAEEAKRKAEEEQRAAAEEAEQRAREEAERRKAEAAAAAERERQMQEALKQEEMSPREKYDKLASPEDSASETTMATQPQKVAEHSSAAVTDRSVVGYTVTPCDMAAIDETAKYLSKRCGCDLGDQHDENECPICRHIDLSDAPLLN

[5] = biological target: MycGFPCtGAP80 (C-terminal domain of GAP80 fused to GFP) (Toxoplasma gondii); experiment: as above
[6] = biological target: KI-IAP1-3Ty (endogenous Ty-tagged full-length version of IAP1) (Toxoplasma gondii); experiment: as above
[7] = biological target: KI-GAP80Ty (GAP80 Ty-tagged at the endogenous locus) (Toxoplasma gondii); experiment: co-IP; anti-Ty co-IP of tagged bait from Triton X-100 lysate of tachyzoites; elution fractions analysed by western blot (anti-MLC1, anti-MyoA, anti-GAP40, anti-GAP45, anti-MyoC)
[8] = biological target: KI-IAP1-3Ty (endogenous Ty-tagged full-length version of IAP1) (Toxoplasma gondii); experiment: as above

Row | Molecule | binding [1] | binding [2] | binding [3] | binding [4] | binding [5] | binding [6] | binding [7] | binding [8]
1 | GAP40 (from UniProt A0A125YP06 1-385) | binds | binds | binds | binds | binds | binds | binds | binds
2 | myosin heavy chain A (MyoA) (from UniProt O00934 1-831) | binds | binds | binds | binds | binds | binds | binds | –
3 | gliding-associated protein GAP45 (protein, UniProt Q7Z289 1-245) MGNACKKNTAKTPTRKEAEDLAEKERQEREAKEKAEAEEKARAEAEKNAADKAEAERRAAEAREREESARKEAEAEAARKAEAEAAEAERLRKEAEKKKAEEAKRKAEEEQRAAAEEAEQRAREEAERRKAEAAAAAERERQMQEALKQEEMSPREKYDKLASPEDSASETTMATQPQKVAEHSSAAVTDRSVVGYTVTPCDMAAIDETAKYLSKRCGCDLGDQHDENECPICRHIDLSDAPLLN | – | – | – | – | – | – | no binding | –
